Measurements published in PubChem BioAssay AID1240 (Sanford-Burnham Center for Chemical Genomics, 2008).
In all, about 50,000 compounds went through this assay and about 800 (1.6%) showed an effect of 50% or more. This is one part of the list.

biological target: Bcl-2-like protein 10 (Homo sapiens) (UniProt Q9HD36); experiment: Phenotype converters, Bcl-B/TR3 peptide binding displacement, primary biochemical FP (AID 1240); details: GST-Bcl-B / FITC-TR3 peptide fluorescence polarization; stronger effect = higher value; compound at 3.75 mg/L;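 note: 0% = Bcl-B with tracer peptide and DMSO and 100% = tracer peptide lacking Bcl-B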
UniProt Q9HD36, sequence (Q9HD36 whole entry, looked up): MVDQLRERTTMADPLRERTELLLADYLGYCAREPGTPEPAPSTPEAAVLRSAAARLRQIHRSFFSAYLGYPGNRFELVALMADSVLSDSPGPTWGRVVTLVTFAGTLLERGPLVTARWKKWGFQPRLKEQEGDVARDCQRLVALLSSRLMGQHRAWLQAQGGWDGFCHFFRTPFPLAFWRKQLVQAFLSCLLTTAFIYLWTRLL

Structure (SMILES) | displacement
O=C(N/N=C\c1ccc(Cl)cc1Cl)c1cccc2cc[nH]c12 | 1%
O=C(c1ccccc1)N1CCN(C2CCN(Cc3ccccc3)CC2)CC1 | -1.6%
Cc1nc(N)sc1-c1csc(Nc2ccccn2)n1 | -8.6%
COc1ccccc1NC(=O)CC1S/C(=N\N=C2/CCCc3ccccc32)NC1=O (stereo unspecified) | -3.9%
NNc1nc(-c2ccccc2)c2cc(Br)ccc2n1 | 6.9%
O=C(N/N=C/c1ccccc1O)C(=O)N1CCCCCC1 | -14.6%
CC(=O)Oc1ccc(NC(=O)CC2Nc3cc(C)c(C)cc3NC2=O)cc1 (stereo unspecified) | -8%
CC(C)c1ccccc1OCCCN1CCCC1 | 3.3%
Cc1ccnc(NS(=O)(=O)c2ccc3ccccc3c2)c1 | -8%
Cc1onc(-c2ccccc2)c1C(=O)Nc1ccc(O)c(C(=O)O)c1 | 10.5%
CCOC(=O)c1ccc(N2NC(=O)/C(=C/c3ccc(-c4ccc(Cl)c(C(=O)O)c4)o3)C2=O)cc1 | 10.5%
CCN(CC)S(=O)(=O)c1ccc(NC(=S)Nc2ccc(F)cc2)cc1 | -4.5%
C#CCOC(=O)/C(=C/c1ccc(F)cc1)NC(C)=O | -8.4%
COc1ccc(CNc2ccc(Br)cc2C(=O)O)c(OC)c1 | -13%
Cc1ccc2cc(S(=O)(=O)N=Nc3c(O)[nH]c4ccc([N+](=O)[O-])cc34)ccc2c1 | 15%
CNS(=O)(=O)c1ccccc1C(=O)NNC1=NS(=O)(=O)c2ccccc21 | 7.2%

Structure (SMILES) | displacement
Cc1nn(C(=O)c2cccnc2)c(C)c1Sc1ccc(Br)cc1 | -13.2%
CC(Oc1ccc(Cl)cc1Cl)C(=O)Nc1ccccn1 (stereo unspecified) | -7.1%
COc1ccc(OC)c(NC(=O)c2ccc(CN(c3ccc(C)c(C)c3)S(C)(=O)=O)cc2)c1 | 1.9%
O=C(Cc1ccc(Cl)cc1)NCc1ccccn1 | 11.4%
CCOC(=O)c1[nH]cnc1C(=O)Nc1ccccc1 | -1.3%
Cc1ccc2nsnc2c1NC(=O)c1ccc(-c2ccc([N+](=O)[O-])cc2)o1 | 16.6%
CN(C)c1ccc(C(C#N)(C#N)C2C(=O)c3ccccc3C2=O)cc1 | 12%
Cc1nc(C)n(C)c(=O)c1-c1ccccc1 | 3.9%
CCOC(=O)N1CCN(C(=S)Nc2ccccc2)CC1 | -1.9%
COc1ccc(C(=O)c2ccc(Cl)cc2)c2ccccc12 | 13.9%
CCN1C(=O)/C(=C\c2cn(CCOc3ccccc3)c3ccccc23)SC1=S | 20.9%
CC1=C(C#N)C(=O)NC(=O)/C1=C\c1ccc(-c2ccc(Cl)c(Cl)c2)o1 | -1%
NC1=NC(=O)/C(=C/c2ccc(OCc3cccc4ccccc34)cc2)S1 | -26.6%
N#CCNC(=O)c1ccccc1[N+](=O)[O-] | -14.7%
O=C(Nc1cc(Oc2cccnc2)cc([N+](=O)[O-])c1)c1cc2nc(-c3ccco3)cc(C(F)(F)F)n2n1 | 38.5%
